For nine molecules, binding results are on record in PMC6467484.

Chains of the proteins cited; added tags and fusions are not shown.
UniProt Q02821: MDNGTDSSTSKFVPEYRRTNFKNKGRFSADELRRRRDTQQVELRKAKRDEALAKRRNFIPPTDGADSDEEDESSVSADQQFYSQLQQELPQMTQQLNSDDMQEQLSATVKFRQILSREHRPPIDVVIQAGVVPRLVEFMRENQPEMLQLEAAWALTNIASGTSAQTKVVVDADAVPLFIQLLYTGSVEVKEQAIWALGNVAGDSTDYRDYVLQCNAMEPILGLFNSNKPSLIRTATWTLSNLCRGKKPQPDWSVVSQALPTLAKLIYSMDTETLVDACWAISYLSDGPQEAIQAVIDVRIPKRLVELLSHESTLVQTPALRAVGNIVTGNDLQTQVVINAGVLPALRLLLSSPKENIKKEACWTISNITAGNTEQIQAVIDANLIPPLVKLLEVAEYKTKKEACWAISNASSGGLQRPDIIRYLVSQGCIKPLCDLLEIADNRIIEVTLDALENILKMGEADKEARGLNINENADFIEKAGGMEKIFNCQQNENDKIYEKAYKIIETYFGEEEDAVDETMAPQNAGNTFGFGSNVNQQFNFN
UniProt P39705: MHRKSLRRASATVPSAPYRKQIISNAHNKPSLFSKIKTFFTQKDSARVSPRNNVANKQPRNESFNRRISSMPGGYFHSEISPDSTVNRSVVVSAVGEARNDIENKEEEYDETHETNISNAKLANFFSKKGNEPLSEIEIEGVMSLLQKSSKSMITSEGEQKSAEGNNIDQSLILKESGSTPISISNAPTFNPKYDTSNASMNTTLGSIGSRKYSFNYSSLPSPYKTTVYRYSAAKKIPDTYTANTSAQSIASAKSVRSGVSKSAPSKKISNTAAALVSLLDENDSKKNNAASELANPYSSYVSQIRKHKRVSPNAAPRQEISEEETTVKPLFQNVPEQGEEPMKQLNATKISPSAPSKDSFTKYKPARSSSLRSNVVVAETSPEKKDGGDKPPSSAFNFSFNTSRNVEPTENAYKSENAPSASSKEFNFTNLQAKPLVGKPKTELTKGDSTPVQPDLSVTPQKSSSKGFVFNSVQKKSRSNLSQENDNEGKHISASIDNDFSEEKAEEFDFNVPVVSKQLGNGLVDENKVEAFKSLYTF
UniProt P15732: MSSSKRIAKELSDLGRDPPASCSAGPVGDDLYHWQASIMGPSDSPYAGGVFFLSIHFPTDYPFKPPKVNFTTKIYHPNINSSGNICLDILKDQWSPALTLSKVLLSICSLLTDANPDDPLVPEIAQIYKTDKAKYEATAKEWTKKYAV
UniProt Q12306: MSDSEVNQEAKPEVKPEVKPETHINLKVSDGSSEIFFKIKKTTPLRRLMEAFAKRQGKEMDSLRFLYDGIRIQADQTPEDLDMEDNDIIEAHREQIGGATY

For experiment [1], the target named is LexA–Nup2 (Saccharomyces cerevisiae) (UniProt P32499). Put plainly: two-hybrid; DupLEX-A system; EGY48 cells with LexA operon–LEU2 reporter, LexA–Nup2 bait mated with B42 activation domain prey strains; growth on histidine- and leucine-deficient medium, 30°C, 2 d.
Experiment [2] has as its target recombinant importin α (Srp1) (Saccharomyces cerevisiae) (UniProt Q02821). Put plainly: pull-down; in vitro interaction of SUMO-conjugated and unconjugated Nup2 with recombinant importin α (Srp1); format in Fig. S2C, not shown; both purified.
Experiment [3] has as its target MBP–Nup60 (Saccharomyces cerevisiae) (UniProt P39705). Kind of experiment: pull-down; MBP–Nup60 coupled to amylose agarose resin; GST–Nup2N processed for in vitro SUMOylation with E1, Ubc9 and Smt3, with or without ATP; bound proteins detected by anti-GST western blot; both purified.

No constants are given. Whether binding was seen depends on the method and setting. Some binding calls cover weakened binding; strength is not graded here. For some of these results: Sequences can lack the tags named with a protein.

For the molecule “B42–Ubc5 (from UniProt P15732 1-148) (enzyme)”, the binding entry in experiment [1] was “no binding”. For “B42–SUMO (Smt3) (from UniProt Q12306 1-101)”, the binding entry in experiment [1] is on record as “binds”.

B1: B42–Siz2 (enzyme, UniProt Q12216 1-726)
chain: MASVMSNNNNNNNNNNASYMFTNPLSNTGGGLINEIKDAINEMEQLKVLELKQICKSLDLSITGKKAVLQDRIKQFLRKSCDIGHIDPWRPKAIKILIAKVRINSSLPKYSTLWETLKTGAFKHPVASGQLPVTALQSTALPPYSQQQALAYSFTSPFYKPIVQIPDANKKLKQSAGRGCTKMKFKVSKSNHDLLKSNKSYKLYLFSGFSIPFIYETVGHEAIDFPYPCELVFNGTKLEDNVKGLKKQNGTGNPANLTPYLKVPTEMNHLDLHYLNIDKEYSISCFIVEVFSPEALLGKILKRPKIIKQATTAYIKRTLNEQDDDDIITTSTVLSLQCPISCTRMKYPAKTDQCKHIQCFDALWFLHSQSQVPTWQCPICQHPIKFDQLKISEFVDNIIQNCNEDVEQVEISVDGSWKPIHNSSAVITDTVNQNHSVKNENQGTVKQEQDYDSRNAFDTNLRNGSNHNEPEIISLDSSDDEAFIPASKSFPTHVNPRNDQLRADIFPSESEGSSDYNPNHTSTPKGSPTMDQDNYQDAFQMRSFLNQGATTNINDTPTNNSSINSFVTATNGDSRIFYNRGPSTPLLPAVLQNLTNQTEAQRNPYGPNYNTTAQDRNLLGIEGDLPPIPPVDPNSEAETELPTRTTSAAHLPPYIHVSTSGHGDDGKIRKRRHSNVSIYIPKNPYATLMKRRPQANHAIMNKTLAQTNDFNTSAQDNSEVVDLTSD
Consider B1, for which the binding result in experiment [1] is listed as “binds”.

B2: B42–Ubc9 (enzyme, UniProt P50623 1-157)
chain: MSSLCLQRLQEERKKWRKDHPFGFYAKPVKKADGSMDLQKWEAGIPGKEGTNWAGGVYPITVEYPNEYPSKPPKVKFPAGFYHPNVYPSGTICLSILNEDQDWRPAITLKQIVLGVQDLLDSPNPNSPAQEPAWRSFSRNKAEYDKKVLLQAKQYSK
B2: the binding entry in experiment [1] is “binds”.

B3: GST–Nup2N (recombinant GST-conjugated Nup2 N-terminal residues 1–174), SUMO-unconjugated (domain or fragment, UniProt P32499 1-174)
chain: MAKRVADAQIQRETYDSNESDDDVTPSTKVASSAVMNRRKIAMPKRRMAFKPFGSAKSDETKQASSFSFLNRADGTGEAQVDNSPTTESNSRLKALNLQFKAKVDDLVLGKPLADLRPLFTRYELYIKNILEAPVKSIENPTQTKGNDAKPAKVEDVQKSSDSSSEDEVKVEGP
With B3, the binding result in experiment [2] and in experiment [3] was “binds” in each case.

B4: B42–Siz1 (enzyme, UniProt Q04195 1-904)
chain: MINLEDYWEDETPGPDREPTNELRNEVEETITLMELLKVSELKDICRSVSFPVSGRKAVLQDLIRNFLQNALVVGKSDPYRVQAVKFLIERIRKNEPLPVYKDLWNALRKGTPLSAITVRSMEGPPTVQQQSPSVIRQSPTQRRKTSTTSSTSRAPPPTNPDASSSSSSFAVPTIHFKESPFYKIQRLIPELVMNVEVTGGRGMCSAKFKLSKADYNLLSNPNSKHRLYLFSGMINPLGSRGNEPIQFPFPNELRCNNVQIKDNIRGFKSKPGTAKPADLTPHLKPYTQQNNVELIYAFTTKEYKLFGYIVEMITPEQLLEKVLQHPKIIKQATLLYLKKTLREDEEMGLTTTSTIMSLQCPISYTRMKYPSKSINCKHLQCFDALWFLHSQLQIPTWQCPVCQIDIALENLAISEFVDDILQNCQKNVEQVELTSDGKWTAILEDDDDSDSDSNDGSRSPEKGTSVSDHHCSSSHPSEPIIINLDSDDDEPNGNNPHVTNNHDDSNRHSNDNNNNSIKNNDSHNKNNNNNNNNNNNNNDNNNSIENNDSNSNNKHDHGSRSNTPSHNHTKNLMNDNDDDDDDRLMAEITSNHLKSTNTDILTEKGSSAPSRTLDPKSYNIVASETTTPVTNRVIPEYLGNSSSYIGKQLPNILGKTPLNVTAVDNSSHLISPDVSVSSPTPRNTASNASSSALSTPPLIRMSSLDPRGSTVPDKTIRPPINSNSYTASISDSFVQPQESSVFPPREQNMDMSFPSTVNSRFNDPRLNTTRFPDSTLRGATILSNNGLDQRNNSLPTTEAITRNDVGRQNSTPVLPTLPQNVPIRTNSNKSGLPLINNENSVPNPPNTATIPLQKSRLIVNPFIPRRPYSNVLPQKRQLSNTSSTSPIMGTWKTQDYGKKYNSG
With B4, the binding entry in experiment [1] is “binds”.

B5: B42–Aos1 (enzyme, UniProt Q06624 1-347)
chain: MDMKVEKLSEDEIALYDRQIRLWGMTAQANMRSAKVLLINLGAIGSEITKSIVLSGIGHLTILDGHMVTEEDLGSQFFIGSEDVGQWKIDATKERIQDLNPRIELNFDKQDLQEKDEEFFQQFDLVVATEMQIDEAIKINTLTRKLNIPLYVAGSNGLFAYVFIDLIEFISEDEKLQSVRPTTVGPISSNRSIIEVTTRKDEEDEKKTYERIKTKNCYRPLNEVLSTATLKEKMTQRQLKRVTSILPLTLSLLQYGLNQKGKAISFEQMKRDAAVWCENLGVPATVVKDDYIQQFIKQKGIEFAPVAAIIGGAVAQDVINILGKRLSPLNNFIVFDGITLDMPLFEF
B5: the binding result in experiment [1] is listed as “binds”.

B6: B42–Mms21 (enzyme, UniProt P38632 1-267)
chain: MALNDNPIPKSVPLHPKSGKYFHNLHARDLSNIYQQCYKQIDETINQLVDSTSPSTIGIEEQVADITSTYKLLSTYESESNSFDEHIKDLKKNFKQSSDACPQIDLSTWDKYRTGELTAPKLSELYLNMPTPEPATMVNNTDTLKILKVLPYIWNDPTCVIPDLQNPADEDDLQIEGGKIELTCPITCKPYEAPLISRKCNHVFDRDGIQNYLQGYTTRDCPQAACSQVVSMRDFVRDPIMELRCKIAKMKESQEQDKRSSQAIDVL
Turning to B6, the binding entry in experiment [1] is on record as “no binding”.

B7: B42–Cst9 (enzyme, UniProt Q06032 1-482)
chain: MGGYLAIVFIPQTNTKSMREKKQKCLKQVRRLSLISPKKYIMPDSIFEQPFVYCGVCHRRTSHGDPLRLTSCAHILCSQHSPLTSKVCPICRSSDISIINLVESKQLPTDIRIFFEPLPPLLESLYNVSQFQLNGLSKQCQYYQNHCLKLREKCARQQQLLYQAKIELDSMAILKKRIQELESVLNHNNVSSMSVGVLPTRNSHQNHYQPPPTVDLTVDDNSLEEFEAKSFIKKLKKNSSLRNSSKNNNGTVTPSTSGRVNKNQPLFMETLNNPNRNSIPPPGMNPNANSNLPNISTIAESTNLNRFSFSPVRVAKGFDGKLPNLDILTNNGSVSSKNISRLSSASLQPSSPLSSSSNRLILPNSNLKELHHSNTPLTSTSTQFPSALEKLKITRKRNNTISGSNRITHNLSSHVRSSGLAFSSSSNSLQQSKLPKSNILKRSNSTQQLTNTHLKSDNHLPPRSSNTVLGSSKKNNKFRRIR
For B7, the binding entry in experiment [1] was “no binding”.
